The values below come from PMC6919601, “Identification of Plasmodium dipeptidyl aminopeptidase allosteric inhibitors by high throughput screening” (PLoS ONE, 2019).

Out of some 110,000 compounds screened, about 230 (0.21%) showed an effect of 50% or more. The list shows a part of the results.
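Also: 30 min substrate incubation versus DMSO and 10 µM JCP410 controls.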

The target in the test is DPAP1 (Plasmodium falciparum, UniProt Q8IIJ9). Nature of the test: primary screen, percent inhibition; read by cleavage of a fluorogenic dipeptide substrate; higher = more effect of the substance. Also on record: species or system P. falciparum D10 trophozoite lysates; single well.
DPAP1, sequence (Q8IIJ9 whole entry, looked up): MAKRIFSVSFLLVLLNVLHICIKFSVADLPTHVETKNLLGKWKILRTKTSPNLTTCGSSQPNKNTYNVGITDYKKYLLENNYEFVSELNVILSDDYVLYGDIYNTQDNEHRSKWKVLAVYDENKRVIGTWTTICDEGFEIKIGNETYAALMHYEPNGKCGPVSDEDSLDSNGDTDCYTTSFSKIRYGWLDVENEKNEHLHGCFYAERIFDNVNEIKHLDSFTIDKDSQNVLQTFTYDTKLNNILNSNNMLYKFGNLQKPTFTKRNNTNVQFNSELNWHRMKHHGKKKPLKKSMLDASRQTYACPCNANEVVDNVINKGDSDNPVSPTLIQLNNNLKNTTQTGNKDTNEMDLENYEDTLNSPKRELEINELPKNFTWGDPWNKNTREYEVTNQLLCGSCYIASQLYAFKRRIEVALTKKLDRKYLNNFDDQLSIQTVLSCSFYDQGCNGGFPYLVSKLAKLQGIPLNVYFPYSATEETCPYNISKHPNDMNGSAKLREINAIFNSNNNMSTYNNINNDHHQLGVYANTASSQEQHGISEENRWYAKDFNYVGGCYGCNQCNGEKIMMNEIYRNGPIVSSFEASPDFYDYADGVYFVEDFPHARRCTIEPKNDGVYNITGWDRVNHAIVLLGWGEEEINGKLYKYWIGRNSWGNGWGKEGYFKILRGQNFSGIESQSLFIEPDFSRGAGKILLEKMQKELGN
Take `CCOC(=O)c1cccc(NC(=O)CCc2ccccc2)c1`: the “% Inhibition @ 10 uM” value was -2.67%.
For `Cc1ccc(S(=O)(=O)N2CCCC(C(=O)NC3CCCCC3)C2)cc1` (stereo not drawn) the value was 0.635%.
For the compound `CCOc1ccccc1C(=O)Nc1sc2c(c1C(N)=O)CCCC2`, the “% Inhibition @ 10 uM” value was -1.44%.
The value for `O=C(O)/C=C/C(=O)Nc1cc([N+](=O)[O-])ccc1F` was -0.0648%; that for `COc1ccc(CCNC(=O)CSc2nc3nncc-3c(O)n2-c2ccccc2OC)cc1OC` was -1.99%.
For `Cc1noc(NS(=O)(=O)c2ccc(NC(=O)C3CC3)cc2)c1C` the value was -3.24%.
The value for `O=S(=O)(NC1CCCCC1N1CCC(O)CC1)c1ccc(Cl)cc1` (stereo not drawn) was -0.671%; that for `Cc1ccc(-c2noc(CSc3nnc(-c4ccncc4)n3-c3ccc(C)cc3)n2)cc1` was 2.89%.
`Cn1c(=O)c(Sc2ccccc2C(=O)O)c(O)c2ccccc21`: the “% Inhibition @ 10 uM” value came out at 4.05%.
For `Oc1ccc(C2CC(c3ccccc3O)=NN2)cc1` (stereo not drawn) the value was 3.79%.
For `COc1ccc(C(=C(Cl)Cl)c2ccc(OC)cc2)cc1` the value was 8.97%.
The value for `CS(=O)(=O)N(CC(=O)NC1CC2CCC1C2)c1ccccc1Cl` (stereo not drawn) was -2.74%; that for `CCOC(=O)c1cnc2nc(Cc3ccccc3)nn2c1O` was -0.671%.
Turning to `CCCN1CCC(N2CCN(Cc3ccccc3)CC2)CC1`, the “% Inhibition @ 10 uM” value is -1.81%.
For `CC1CCCC(NCc2c(C(=O)O)n(Cc3ccccc3F)c3ccccc23)C1C` (stereo not drawn), the “% Inhibition @ 10 uM” value amounted to 1.93%.
For `COc1ccccc1NC1=NS(=O)(=O)c2ccccc21` the value was 1.13%.
The value for `COC(=O)c1c(N)c(C#N)c(C)n1-c1ccccc1` was -2.44%; that for `COc1ccccc1N1CCN(S(=O)(=O)c2ccc(SC)cc2)CC1` was -10.7%.
The value for `Cn1c(=O)n(C)c2cc(/C=C3/SC(=O)N(Cc4ccccc4F)C3=O)ccc21` was -1.22%; that for `Cc1ccc(C(=O)O)cc1S(=O)(=O)Nc1ccccc1Cl` was 0.189%; that for `Nc1ccccc1S(=O)(=O)Nc1cccc2cccnc12` was -3.48%.
On to `CC(C)(C)C(/C=C\c1ccc(Cl)cc1Cl)n1nnnc1C1(N2CCOCC2)CCCCC1` (stereo not drawn), for which the “% Inhibition @ 10 uM” value is given as -2.66%.
For `CCn1c2ccccc2c2cc(CNCCc3ccc(Cl)cc3Cl)ccc21`, the “% Inhibition @ 10 uM” value was -5.16%.
For `Cc1ccc2onc(CC(=O)Nc3cc(-c4cccc(Cl)c4)no3)c2c1` the value was 1.23%; for `CC1CC(C)CN(C(=O)C2c3ccccc3C(=O)N(C)C2c2cn(C)c3ccccc23)C1` (stereo not drawn), -0.668%.
For `CCN(Cc1ccccc1)S(=O)(=O)c1csc(C(N)=O)c1` the value was 3.28%; for `COc1ccc(-c2csc(/C(C#N)=C\C=C\c3ccccc3)n2)cc1`, 2.13%; for `COc1cc(C2CC(=O)N=C(N)N2)ccc1OC(F)F` (stereo not drawn), 2.01%.
Regarding `COc1cc(CNCc2cccc(C(F)(F)F)c2)cc(OC)c1`, the “% Inhibition @ 10 uM” value was -4.7%.
As to `Clc1ccc(N2CCN(Cc3cc(Br)cs3)CC2)cc1`, the “% Inhibition @ 10 uM” value was 0.847%.
The value for `Cn1cccc1CNCCSc1nnnn1C` was 0.00706%; that for `CCO/C(O)=C/C1=Nc2nonc2NC(=O)C1` was 2.33%.
The value for `CC(C)(C)N1CN2C(=O)N3CN(C(C)(C)C)CN4C(=O)N(C1)C2C34` (stereo not drawn) was 1.42%; that for `CC(C)CC(C(=O)N1CCN(C)CC1)N1Cc2ccccc2C1=O` (stereo not drawn) was 8.57%.
The value for `O=C(c1ccccc1)n1nc(-c2cccnc2)nc1NCc1ccccc1` was 3.81%.
As for `CN(CC(=O)NC1CCCc2ccccc21)c1nnc(N2CCCC2=O)s1` (stereo not drawn), the “% Inhibition @ 10 uM” value is -7.54%.
As for `Cc1ccsc1C(=O)N[C@@H](CC1CCCCC1)C(=O)NCC#N`, the “% Inhibition @ 10 uM” value was determined as 2.67%.
The value for `Cc1cccc(-n2nnc(C(=O)NCc3ccc4c(c3)OCO4)c2N)c1` was 4.47%.
For `CCCOc1ccc(C2C(C#N)=C(N)Oc3[nH]nc(C(C)(C)C)c32)cc1OC` (stereo not drawn) the value was -2.07%.
For `CC1=C(C(=O)NC2CCCC2)C2(CCCCCC2)OC1=O` the value was -1.89%.
`CCOC(=O)C1=CN(C(C)C)C=C(C(=O)OCC)C1c1ccccc1OC`: the “% Inhibition @ 10 uM” value stood at 1.86%.
For `CC(NC(=O)/C=C/c1ccco1)c1ccccc1` (stereo not drawn) the value was 5.77%.
For `O=c1sc2ccccc2c(N2CCOCC2)c1[N+](=O)[O-]` the value was 5.01%.
For `CC(=O)N1CCN(C2=NC(=O)/C(=C/c3ccc(-c4cc(Cl)ccc4Cl)o3)S2)CC1` the value was 3.85%; for `CCC(C)NC(=O)c1sc2nc(-c3ccccc3)cn2c1C` (stereo not drawn), -0.138%.
Consider `CNCCOC(c1ccccc1)c1ccccc1`, for which the “% Inhibition @ 10 uM” value came to 0.989%.
In the case of `COc1ccc(S(=O)(=O)N(C)CC(=O)N2CCN(c3cccc(Cl)c3)CC2)cc1`, the “% Inhibition @ 10 uM” value is given as -2.6%.
For `O=C(O)c1ccc(CS(=O)(=O)c2c(Cl)cccc2Cl)o1` the value was -3.78%; for `COc1cc(C=O)ccc1Oc1nc(N2CCCCC2)nc(N2CCCCC2)n1`, 4.86%; for `Cc1ccc(-c2csc(N)n2)cc1`, 20.7%.
For `COc1ccc(Cc2nc3ccccc3n2CC(C)C)cc1` the value was 1.12%.
